# Reference: publication PMC10307871
# Sequences of proteins named here, by UniProt entry; tags and fusion partners are left off. A change or cut given only in a name is not applied to a line headed by its entry.
# UniProt Q9H4L4: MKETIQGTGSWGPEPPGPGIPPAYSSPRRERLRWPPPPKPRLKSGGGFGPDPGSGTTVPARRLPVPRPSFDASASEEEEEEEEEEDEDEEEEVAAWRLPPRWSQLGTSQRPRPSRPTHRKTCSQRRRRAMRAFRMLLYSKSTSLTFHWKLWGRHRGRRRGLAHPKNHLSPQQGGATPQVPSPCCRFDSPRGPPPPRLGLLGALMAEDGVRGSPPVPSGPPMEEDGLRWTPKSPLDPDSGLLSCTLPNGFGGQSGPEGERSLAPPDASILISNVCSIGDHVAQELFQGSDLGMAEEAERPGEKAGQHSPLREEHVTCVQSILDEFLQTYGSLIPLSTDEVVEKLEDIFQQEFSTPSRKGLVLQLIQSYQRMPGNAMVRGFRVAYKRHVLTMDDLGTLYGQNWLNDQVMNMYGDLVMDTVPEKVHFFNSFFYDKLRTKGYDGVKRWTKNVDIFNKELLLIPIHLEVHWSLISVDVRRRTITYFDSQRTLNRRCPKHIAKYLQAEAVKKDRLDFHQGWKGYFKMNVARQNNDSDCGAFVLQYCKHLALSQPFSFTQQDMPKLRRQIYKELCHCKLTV
# UniProt P63279: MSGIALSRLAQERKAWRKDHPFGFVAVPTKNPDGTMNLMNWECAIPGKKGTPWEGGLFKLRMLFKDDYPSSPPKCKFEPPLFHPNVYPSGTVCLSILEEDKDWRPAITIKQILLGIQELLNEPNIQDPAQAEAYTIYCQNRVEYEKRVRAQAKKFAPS
# Changes are numbered by the printed parent chain. These are yes or no findings as the source states them, for the method shown. Binding seen in cells or lysates may run through a third protein. Some binding calls cover weakened binding; strength is not graded here. For some of these results: Sequences can lack the tags named with a protein.
# B1: Myc-DKC1 (protein, UniProt O60832 1-514)
# chain: MADAEVIILPKKHKKKKERKSLPEEDVAEIQHAEEFLIKPESKVAKLDTSQWPLLLKNFDKLNVRTTHYTPLACGSNPLKREIGDYIRTGFINLDKPSNPSSHEVVAWIRRILRVEKTGHSGTLDPKVTGCLIVCIERATRLVKSQQSAGKEYVGIVRLHNAIEGGTQLSRALETLTGALFQRPPLIAAVKRQLRVRTIYESKMIEYDPERRLGIFWVSCEAGTYIRTLCVHLGLLLGVGGQMQELRRVRSGVMSEKDHMVTMHDVLDAQWLYDNHKDESYLRRVVYPLEKLLTSHKRLVMKDSAVNAICYGAKIMLPGVLRYEDGIEVNQEIVVITTKGEAICMAIALMTTAVISTCDHGIVAKIKRVIMERDTYPRKWGLGPKASQKKLMIKQGLLDKHGKPTDSTPATWKQEYVDYSESAKKEVVAEVVKAPQVVAEAAKTAKRKRESESESDETPPAAPQLIKKEKKKSKKDKKAKAGLESGAEPGDGDSDTTKKKKKKKKAKEVELVSE
# B2: MYC-tagged NHP2 (protein, UniProt Q9NX24 1-153)
# chain: MTKIKADPDGPEAQAEACSGERTYQELLVNQNPIAQPLASRRLTRKLYKCIKKAVKQKQIRRGVKEVQKFVNKGEKGIMVLAGDTLPIEVYCHLPVMCEDRNLPYVYIPSKTDLGAAAGSKRPTCVIMVKPHEEYQEAYDECLEEVQSLPLPL
# B3: dyskerin pseudouridine synthase (DKC1), endogenous (protein, UniProt O60832 1-514)
# chain: B1 chain
# Experiments:
# [1] = target: T1, dyskerin pseudouridine synthase (DKC1), endogenous (human (endogenous in Patu-8988t)) (UniProt O60832); test: co-IP; endogenous, reciprocal; Patu-8988t cell lysate incubated with antibodies against SENP3 or DKC1 overnight at 4 °C, then protein A/G agarose beads 2 h; immunoblot
# T1 sequence: B1 chain
# [2] = target: T2, Flag-DKC1 (human (cDNA of PDAC cells)) (UniProt O60832); test: co-IP; HEK293T cells co-transfected with Flag- and Myc-tagged constructs; IP lysis buffer (25 mM Tris-HCl pH 7.4, 150 mM NaCl, 1% NP-40, 1 mM EDTA, 5% glycerol); anti-Flag gels overnight at 4 °C; immunoblot for Myc
# T2 sequence: B1 chain
# [3] = target: T3, Flag-GFP-DKC1-M (human (cDNA of PDAC cells)) (UniProt O60832); test: as above
# T3 sequence: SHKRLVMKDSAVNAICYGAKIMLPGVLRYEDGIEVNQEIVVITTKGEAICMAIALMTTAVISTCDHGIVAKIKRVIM
# [4] = target: T4, DKC1 (construct of Fig. 5A, B; tag not told) (human (cDNA of PDAC cells)) (UniProt O60832); test: co-IP; HEK293T cells transduced with expression vectors for DKC1 and UBC9; lysis and co-IP, immunoblot; tags and bait not told in the legend
# T4 sequence: B1 chain
# [5] = target: T2, Flag-DKC1 (human (cDNA of PDAC cells)); test: co-IP; HEK293T cells transfected for 24 h with SENP3 (wild type or C532S), Flag-DKC1 and HA-SUMO3; DKC1 recovered with anti-Flag gels; immunoblot
# [6] = target: Flag-SENP3 (human (cDNA of PDAC cells)) (UniProt Q9H4L4); test: co-IP; HEK293T cells co-transfected with Flag- and Myc-tagged constructs; IP lysis buffer (25 mM Tris-HCl pH 7.4, 150 mM NaCl, 1% NP-40, 1 mM EDTA, 5% glycerol); anti-Flag gels overnight at 4 °C; immunoblot for Myc
# [7] = target: T5, Flag-NHP2, wild type (human (cDNA of PDAC cells)) (UniProt Q9NX24); test: as above
# T5 sequence: B2 chain
# [8] = target: T2, Flag-DKC1 (human (cDNA of PDAC cells)); test: as above; remark: listed apart in the source
# [9] = target: T6, SUMOylation-resistant (3KR) DKC1, Flag-tagged (human (cDNA of PDAC cells)) (UniProt O60832); test: as above
# T6 sequence: B1 chain with K413R, K448R, K467R
# [10] = target: SUMO specific peptidase 3 (SENP3), endogenous (human (endogenous in Patu-8988t)) (UniProt Q9H4L4); test: co-IP; endogenous, reciprocal; Patu-8988t cell lysate incubated with antibodies against SENP3 or DKC1 overnight at 4 °C, then protein A/G agarose beads 2 h; immunoblot
molecule,measurement,setting,value
"SUMO specific peptidase 3 (SENP3), endogenous (from UniProt Q9H4L4 1-574) (enzyme)",binding,[1],binds
Myc-SENP3 (from UniProt Q9H4L4 1-574) (enzyme),binding,[2],binds
same,binding,[3],no binding
UBC9 (from UniProt P63279 1-158) (enzyme),binding,[4],binds
catalytically inactive SENP3 (C532S) (from UniProt Q9H4L4 1-574) (enzyme),binding,[5],binds
B1,binding,[6],binds
same,binding,[7],binds
B2,binding,[8],binds
same,binding,[9],binds
B3,binding,[10],binds
